# Measured values: the supplement of paper PMC8728848
# The list shows a part of the results.
# B1: LICBM33A (Lactococcus lactis), Q9CE94 (protein)
# chain: MKKLLTGLLVAAGLLSVSLLIKTDTVSAHGYVQSPPARGYQGQLDSQSLGWTAAFNIYGNVISNPQSLEAPKGFPECGPADGRIASANGGLGQIGDFVLDNQTSSRWKKTSISTGSNIFTWKYTAPHKTTKWHYYMTKTGWDQNAPLKHSELELIGTINHDGSPATNNLSHTINIPTDRSGYHIVLAVWDVADTSNAFYNVIDINVNNKNASSQVFGPFL
# Columns and labels:
# Assay in all cases: glycan array binding signal (z-score within array); higher = stronger binding
# Conditions in all cases: glycan notation: IUPAC condensed, linker removed
# [1] = biological target: Fuc(a1-3)[Gal3S(b1-4)]GlcNAc
# Method in brief: (§1)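 Glycan array data came from 3228 arrays in the Consortium for Functional Glycomics database, and only arrays with an available protein sequence were kept. Glycan names were put into IUPAC-condensed notation, and columns mapping to the same glycan were averaged. The binding signal is a within-array Z-score, averaged across arrays of one protein sequence run at different concentrations or buffers and across linkers. A negative Z-score can be read as non-binding.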
# [2] = biological target: Fuc(a1-3)[Gal3S(b1-4)]GlcNAc6S
# Method in brief: as §1
# [3] = biological target: Fuc(a1-3)[GalNAc(b1-4)]GlcNAc
# Method in brief: as §1
# [4] = biological target: Fuc(a1-3)[GalNAc(b1-4)]GlcNAc6S
# Method in brief: as §1
# Fuc(a1-4)GlcNAc = biological target: Fuc(a1-4)GlcNAc
# Method in brief: as §1
# Fuc(b1-3)GlcNAc = biological target: Fuc(b1-3)GlcNAc
# Method in brief: as §1
# Gal(a1-2)Gal = biological target: Gal(a1-2)Gal
# Method in brief: as §1
# Gal(a1-3)Gal = biological target: Gal(a1-3)Gal
# Method in brief: as §1
# Gal(a1-3)Gal(b1-3)GlcNAc = biological target: Gal(a1-3)Gal(b1-3)GlcNAc
# Method in brief: as §1
# [5] = biological target: Gal(a1-3)Gal(b1-3)GlcNAc(b1-2)Man
# Method in brief: as §1
# [6] = biological target: Gal(a1-3)Gal(b1-3)GlcNAc(b1-2)Man(a1-3)[Gal(a1-3)Gal(b1-3)GlcNAc(b1-2)Man(a1-6)]Man(b1-4)GlcNAc(b1-4)GlcNAc
# Method in brief: as §1
# [7] = biological target: Gal(a1-3)Gal(b1-3)GlcNAc(b1-3)GalNAc
# Method in brief: as §1
# [8] = biological target: Gal(a1-3)Gal(b1-3)GlcNAc(b1-6)GalNAc
# Method in brief: as §1
# [9] = biological target: Gal(a1-3)Gal(b1-3)[Fuc(a1-4)]GlcNAc(b1-2)Man(a1-3)[Gal(a1-3)Gal(b1-3)[Fuc(a1-4)]GlcNAc(b1-2)Man(a1-6)]Man(b1-4)GlcNAc(b1-4)GlcNAc
# Method in brief: as §1
# Gal(a1-3)Gal(b1-4)Glc = biological target: Gal(a1-3)Gal(b1-4)Glc
# Method in brief: as §1
# Gal(a1-3)Gal(b1-4)GlcNAc = biological target: Gal(a1-3)Gal(b1-4)GlcNAc
# Method in brief: as §1
# [10] = biological target: Gal(a1-3)Gal(b1-4)GlcNAc(b1-2)Man
# Method in brief: as §1
# [11] = biological target: Gal(a1-3)Gal(b1-4)GlcNAc(b1-2)Man(a1-3)[Gal(a1-3)Gal(b1-4)GlcNAc(b1-2)Man(a1-6)]Man(b1-4)GlcNAc(b1-4)GlcNAc
# Method in brief: as §1
# [12] = biological target: Gal(a1-3)Gal(b1-4)GlcNAc(b1-3)GalNAc
# Method in brief: as §1
# [13] = biological target: Gal(a1-3)Gal(b1-4)GlcNAc(b1-6)GalNAc
# Method in brief: as §1
# [14] = biological target: Gal(a1-3)Gal(b1-4)[Fuc(a1-3)]GlcNAc
# Method in brief: as §1
# [15] = biological target: Gal(a1-3)Gal(b1-4)[Fuc(a1-3)]GlcNAc(b1-2)Man(a1-3)[Gal(a1-3)Gal(b1-4)[Fuc(a1-3)]GlcNAc(b1-2)Man(a1-6)]Man(b1-4)GlcNAc(b1-4)GlcNAc
# Method in brief: as §1
# Gal(a1-3)GalNAc = biological target: Gal(a1-3)GalNAc
# Method in brief: as §1
# [16] = biological target: Gal(a1-3)[Gal(a1-4)]Gal(b1-4)GlcNAc
# Method in brief: as §1
# [17] = biological target: Gal(a1-4)Gal(b1-3)GlcNAc(b1-2)Man(a1-3)[Gal(a1-4)Gal(b1-3)GlcNAc(b1-2)Man(a1-6)]Man(b1-4)GlcNAc(b1-4)GlcNAc
# Method in brief: as §1
# Gal(a1-4)Gal(b1-4)Glc = biological target: Gal(a1-4)Gal(b1-4)Glc
# Method in brief: as §1
# Gal(a1-4)Gal(b1-4)GlcNAc = biological target: Gal(a1-4)Gal(b1-4)GlcNAc
# Method in brief: as §1
# [18] = biological target: Gal(a1-4)Gal(b1-4)GlcNAc(b1-2)Man(a1-3)[Gal(a1-4)Gal(b1-4)GlcNAc(b1-2)Man(a1-6)]Man(b1-4)GlcNAc(b1-4)GlcNAc
# Method in brief: as §1
# [19] = biological target: Gal(a1-4)Gal(b1-4)GlcNAc(b1-3)Gal(b1-4)Glc
# Method in brief: as §1
# Gal(a1-4)GlcNAc = biological target: Gal(a1-4)GlcNAc
# Method in brief: as §1
# Gal(a1-6)Glc = biological target: Gal(a1-6)Glc
# Method in brief: as §1
# Gal(b1-2)Gal = biological target: Gal(b1-2)Gal
# Method in brief: as §1
# Gal(b1-3)Gal = biological target: Gal(b1-3)Gal
# Method in brief: as §1
# Gal(b1-3)Gal(b1-4)GlcNAc = biological target: Gal(b1-3)Gal(b1-4)GlcNAc
# Method in brief: as §1
# Gal(b1-3)GalNAc = biological target: Gal(b1-3)GalNAc
# Method in brief: as §1
# [20] = biological target: Gal(b1-3)GalNAc(a1-3)[Fuc(a1-2)]Gal(b1-4)Glc
# Method in brief: as §1
# [21] = biological target: Gal(b1-3)GalNAc(a1-3)[Fuc(a1-2)]Gal(b1-4)GlcNAc
# Method in brief: as §1
# Gal(b1-3)GalNAc(b1-3)Gal = biological target: Gal(b1-3)GalNAc(b1-3)Gal
# Method in brief: as §1
# [22] = biological target: Gal(b1-3)GalNAc(b1-3)Gal(a1-4)Gal(b1-4)Glc
# Method in brief: as §1
# [23] = biological target: Gal(b1-3)GalNAc(b1-4)Gal(b1-4)Glc
# Method in brief: as §1
# [24] = biological target: Gal(b1-3)GalNAc(b1-4)[Neu5Ac(a2-3)]Gal(b1-4)Glc
# Method in brief: as §1
# Gal(b1-3)GlcNAc = biological target: Gal(b1-3)GlcNAc
# Method in brief: as §1
# [25] = biological target: Gal(b1-3)GlcNAc(a1-3)Gal(b1-4)GlcNAc
# Method in brief: as §1
# [26] = biological target: Gal(b1-3)GlcNAc(a1-6)Gal(b1-4)GlcNAc
# Method in brief: as §1
# Gal(b1-3)GlcNAc(b1-2)Man = biological target: Gal(b1-3)GlcNAc(b1-2)Man
# Method in brief: as §1
binder,measurement,setting,value
B1,glycan array binding signal (z-score),[1],-0.361
same,glycan array binding signal (z-score),[2],0.112
same,glycan array binding signal (z-score),[3],0.22
same,glycan array binding signal (z-score),[4],-0.147
same,glycan array binding signal (z-score),Fuc(a1-4)GlcNAc,-0.206
same,glycan array binding signal (z-score),Fuc(b1-3)GlcNAc,0.586
same,glycan array binding signal (z-score),Gal(a1-2)Gal,-0.28
same,glycan array binding signal (z-score),Gal(a1-3)Gal,-0.484
same,glycan array binding signal (z-score),Gal(a1-3)Gal(b1-3)GlcNAc,-0.414
same,glycan array binding signal (z-score),[5],-0.173
same,glycan array binding signal (z-score),[6],0.134
same,glycan array binding signal (z-score),[7],0.936
same,glycan array binding signal (z-score),[8],-0.563
same,glycan array binding signal (z-score),[9],-0.268
same,glycan array binding signal (z-score),Gal(a1-3)Gal(b1-4)Glc,-0.696
same,glycan array binding signal (z-score),Gal(a1-3)Gal(b1-4)GlcNAc,-0.436
same,glycan array binding signal (z-score),[10],-0.464
same,glycan array binding signal (z-score),[11],0.758
same,glycan array binding signal (z-score),[12],2.06
same,glycan array binding signal (z-score),[13],-0.656
same,glycan array binding signal (z-score),[14],-0.288
same,glycan array binding signal (z-score),[15],-0.371
same,glycan array binding signal (z-score),Gal(a1-3)GalNAc,-0.228
same,glycan array binding signal (z-score),[16],-0.13
same,glycan array binding signal (z-score),[17],-0.616
same,glycan array binding signal (z-score),Gal(a1-4)Gal(b1-4)Glc,1.58
same,glycan array binding signal (z-score),Gal(a1-4)Gal(b1-4)GlcNAc,0.111
same,glycan array binding signal (z-score),[18],-0.297
same,glycan array binding signal (z-score),[19],0.203
same,glycan array binding signal (z-score),Gal(a1-4)GlcNAc,-0.297
same,glycan array binding signal (z-score),Gal(a1-6)Glc,-0.259
same,glycan array binding signal (z-score),Gal(b1-2)Gal,-1.96
same,glycan array binding signal (z-score),Gal(b1-3)Gal,0.193
same,glycan array binding signal (z-score),Gal(b1-3)Gal(b1-4)GlcNAc,-0.142
same,glycan array binding signal (z-score),Gal(b1-3)GalNAc,-0.376
same,glycan array binding signal (z-score),[20],-0.262
same,glycan array binding signal (z-score),[21],-0.156
same,glycan array binding signal (z-score),Gal(b1-3)GalNAc(b1-3)Gal,-0.716
same,glycan array binding signal (z-score),[22],0.5
same,glycan array binding signal (z-score),[23],0.1
same,glycan array binding signal (z-score),[24],-0.354
same,glycan array binding signal (z-score),Gal(b1-3)GlcNAc,-0.469
same,glycan array binding signal (z-score),[25],-0.723
same,glycan array binding signal (z-score),[26],0.467
same,glycan array binding signal (z-score),Gal(b1-3)GlcNAc(b1-2)Man,-0.136
